Source: PMC6131546, “Interaction of TBC1D9B with Mammalian ATG8 Homologues Regulates Autophagic Flux” (Scientific Reports, 2018)

Target: T1, recombinant GST-ATG8L (human, UniProt Q9H0R8)
T1 construct: human ATG8L (GABARAPL1), cloned into pGEX-6p; also called GST-fused ATG8L; GABARAPL1; source: E. coli BL21, purified (glutathione-sepharose)
Assay: pull-down; GST fusion on glutathione-sepharose beads, incubated with recombinant FLAG-TBC1D9B or His-LC3B at 4 °C for 1 hour; 20 mM Tris pH 7.4, 0.1 mM EDTA, 100 mM NaCl; SDS-PAGE with Coomassie Brilliant Blue
Details: both partners purified

T1 sequence (Q9H0R8 whole entry, the tested form may be a part): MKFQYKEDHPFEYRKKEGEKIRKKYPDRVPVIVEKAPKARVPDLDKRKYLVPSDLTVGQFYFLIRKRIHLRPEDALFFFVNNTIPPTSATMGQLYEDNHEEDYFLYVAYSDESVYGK

B1: FLAG-TBC1D9Bα from a stable HEK293 cell line (natural protein)
chain: not shown
notes: human TBC1D9B, alpha splice form, in pcDNA3.1-FLAG; also called FLAG-tagged recombinant TBC1D9B; source: purified (anti-FLAG M2 beads, eluted with glycine HCl) for the pull-down; in lysate for the co-IP
B1: binds.
